# Data published in article PMC4336329 (PLoS ONE, 2015).
# Out of some 310,000 compounds screened, about 2,200 (0.71%) showed an effect of 50% or more. The effect is printed as a negative number. Some of the results follow.
# Target: human ether-à-go-go-related gene (hERG) potassium channel (human, UniProt Q12809)
# Test: primary screen, population patch clamp on CHO cells stably expressing hERG
# Sequence of human ether-à-go-go-related gene (hERG) potassium channel (Q12809 whole entry, looked up): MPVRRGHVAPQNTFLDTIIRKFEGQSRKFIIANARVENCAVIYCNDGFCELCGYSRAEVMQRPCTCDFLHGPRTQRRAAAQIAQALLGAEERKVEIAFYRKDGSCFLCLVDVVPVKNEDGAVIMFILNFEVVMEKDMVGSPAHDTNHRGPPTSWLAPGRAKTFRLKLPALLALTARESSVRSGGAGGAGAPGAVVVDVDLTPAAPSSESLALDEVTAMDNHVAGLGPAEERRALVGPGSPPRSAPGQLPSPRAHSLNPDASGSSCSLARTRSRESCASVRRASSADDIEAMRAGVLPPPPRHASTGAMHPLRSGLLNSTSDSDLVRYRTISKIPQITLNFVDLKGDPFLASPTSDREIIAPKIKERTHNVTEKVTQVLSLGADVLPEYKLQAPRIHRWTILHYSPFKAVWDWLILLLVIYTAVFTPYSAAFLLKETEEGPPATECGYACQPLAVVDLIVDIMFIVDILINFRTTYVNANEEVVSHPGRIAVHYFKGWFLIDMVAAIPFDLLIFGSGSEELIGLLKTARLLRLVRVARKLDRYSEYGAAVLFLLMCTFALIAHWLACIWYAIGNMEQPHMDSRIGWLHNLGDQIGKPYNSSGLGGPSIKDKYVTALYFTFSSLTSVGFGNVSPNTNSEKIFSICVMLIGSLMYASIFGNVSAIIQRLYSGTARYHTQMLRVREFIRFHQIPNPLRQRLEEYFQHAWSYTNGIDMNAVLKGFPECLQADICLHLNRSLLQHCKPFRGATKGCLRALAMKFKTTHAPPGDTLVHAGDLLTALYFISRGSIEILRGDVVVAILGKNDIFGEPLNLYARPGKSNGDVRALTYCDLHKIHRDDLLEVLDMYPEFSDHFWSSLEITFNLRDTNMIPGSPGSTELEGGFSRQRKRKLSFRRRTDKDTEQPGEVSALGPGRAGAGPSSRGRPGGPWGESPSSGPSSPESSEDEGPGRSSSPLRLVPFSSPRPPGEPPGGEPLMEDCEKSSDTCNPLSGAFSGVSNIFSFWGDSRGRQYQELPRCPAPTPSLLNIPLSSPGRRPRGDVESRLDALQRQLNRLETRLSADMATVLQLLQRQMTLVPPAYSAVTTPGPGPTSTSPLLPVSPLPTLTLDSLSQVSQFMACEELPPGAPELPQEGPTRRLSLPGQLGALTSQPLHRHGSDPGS
row,Structure (SMILES),"hERG current change (%, negative = inhibition) at 1uM"
1,COC(=O)C(=O)N1CC2(C)CNCC(C)(C1)C2=O,2.03%
2,CC1=C(C(=O)OCc2ccccc2)C(/C=C/c2ccccc2)N2C(=O)CCSC2=N1 (centres unmarked),17.6%
3,COc1cccc(OCC(O)CN2CCN(C(c3ccccc3)c3ccccc3)CC2)c1.Cl (centres unmarked),3.72%
4,O=C(N=Nc1c(O)[nH]c2ccccc12)c1ccco1,14.3%
5,CCCNC(=O)c1ccccc1NS(=O)(=O)c1ccc2c(c1)OCCO2,14.1%
6,O=C(C1CCN(S(=O)(=O)c2cccc3cccnc23)CC1)N1CCN(c2ccccn2)CC1,-7.75%
7,COc1ccc(S(=O)(=O)CCC(=O)N2CCN(c3cccc(Cl)c3)CC2)cc1,6.35%
8,COc1ccc(-c2nc(=S)[nH][nH]2)cc1OC,10.4%
9,CCOC(=O)C1CCCN(C(=O)c2cccc(S(=O)(=O)N(C)c3ccc(C)cc3)c2)C1 (centres unmarked),-5.55%
10,COc1ccc(/C=C/C(=O)Nc2ccc(-n3nncc3-c3ccccc3)cc2)cc1OC,6.33%
11,CC(C)(C)n1nc2c(c1NC(=O)c1ccc(C(F)(F)F)cc1)CS(=O)(=O)C2,-9.67%
12,COc1ccc(CNC(=S)Nc2ccccc2F)cc1,16.1%
13,CCCCNC(=O)C1CC(c2cccc([N+](=O)[O-])c2)=NO1 (centres unmarked),5.09%
14,COc1ccc(N2C(=O)CCC(C(C)=O)=C2C)cc1,10.7%
15,COC(=O)CCSc1nccn1Cc1ccccc1,8.84%
16,COc1ccc(C(=O)/C=C/Nc2ccc(S(=O)(=O)Nc3cccc(C(C)=O)c3)cc2)cc1,6.96%
17,O=C(COC(=O)c1cccc(NS(=O)(=O)c2ccc(F)c(F)c2)c1)NC(=O)NC1CCCCC1,11.6%
18,O=C(CCc1ccccc1)c1ccc2c(c1)OCCCO2,-8.59%
19,CCOC(=S)SCC(=O)Nc1nc(-c2ccccc2)cs1,29.9%
20,O=C(N/N=C/c1cn(-c2ccccc2)nc1-c1cc2ccccc2o1)c1ccncc1,5.23%
21,CCC(Oc1ccccc1)C(=O)N1CCN(c2ccccn2)CC1 (centres unmarked),13.3%
22,Cc1ccc(C(=O)OCc2nc3ccccc3s2)o1,4.16%
23,Cc1ccsc1C(=O)OCC(=O)Nc1ccc(Cl)cc1C(F)(F)F,5.52%

row,Structure (SMILES),"hERG current change (%, negative = inhibition) at 1uM"
1,CCc1ccccc1OCC(=O)Nc1ccc(S(N)(=O)=O)cc1,23.2%
2,COc1ccc(-c2cc(-c3cccnc3)c(C#N)c(N)n2)cc1,8.12%
3,COc1ccc(N2CCN(C(=O)[C@@H]3CCCN3C3=NS(=O)(=O)c4ccccc43)CC2)cc1,17.6%
4,CN1CCC(=NNC(=O)C(=O)NC2CCCCC2)CC1,4.49%
5,CCCCN(CC)S(=O)(=O)c1ccc(C(=O)Nc2nnc(CSC)o2)cc1,5.85%
6,Cc1ccc(-c2csc(NC(=O)/C=C/c3cccs3)n2)cc1C,12%
7,Cc1cc(C)c(OCC(=O)OC(C)C(=O)N2CCc3ccccc32)c(C)c1 (centres unmarked),11.1%
8,COCCN(C(=O)CSc1nnc(Nc2ccccc2F)s1)c1c(N)n(Cc2ccccc2)c(=O)[nH]c1=O,11.2%
9,O=C(NCc1ccc2c(c1)OCO2)C(=O)NC1CCCCC1,6.07%
10,CN(c1ncc(C(F)(F)F)cc1Cl)N1C(=O)c2cccc(N)c2C1=O,9.47%
11,COc1ccc(Oc2cn[nH]c2-c2ccc(OC)cc2O)cc1,3.1%
12,CCN1CCN(CCOc2ccc(Br)cc2C)CC1.O=C(O)C(=O)O,6.43%
13,S=C(NCc1ccco1)Nc1ccc(Cl)cc1Cl,14.5%
14,CCN(CC(=O)NC(C)C)C(=O)CCNC(=O)c1ccc(Cl)cc1,14.1%
15,COc1ccccc1CCNC(=O)C(=O)NCC1OCCN1C(=O)c1ccc(Cl)cc1 (centres unmarked),6.93%
16,Cc1cccc(OCC(=O)Nc2ccc(C(=O)NCc3cccnc3)cc2)c1,11%
17,CCC(C)c1ccc(NC(=S)Nc2ccc(OC)cc2)cc1 (centres unmarked),8.97%
18,O=C(NCc1ccc(F)cc1)c1cnccn1,16%
19,CCCCC(O)(c1ccc(F)cc1)C(CN1CCOCC1)c1ccc(Cl)cc1.Cl (centres unmarked),13.7%
20,COC(=O)C(C)NC(=O)C(C)NC(=O)OCc1ccccc1 (centres unmarked),8.9%
21,COc1ccc(CCNC(=O)CSc2n[nH]c(C)c2[N+](=O)[O-])cc1OC,4.15%
22,Cc1ccccc1CSCC(=O)Nc1ccccc1Br,14.5%
23,CCCNC(=O)CCCN1C(=O)c2ccccc2Sc2ncccc21,25.4%

row,Structure (SMILES),"hERG current change (%, negative = inhibition) at 1uM"
1,Cc1cc(C)n(-c2ncnc3ccccc23)n1,16.4%
2,COc1ccc(Cn2c(=S)[nH]c3ccccc32)cc1,4%
3,CC(=O)c1c(C)[nH]c(C(=O)CSc2nnc(-c3ccccc3)n2Cc2ccc3c(c2)OCO3)c1C,-0.381%
4,Cc1c(OCC(=O)NCc2ccccn2)ccc2c3c(c(=O)oc12)CCCC3,11.3%
5,O=C(O)CCC(=O)N1CCN(c2nc3ccccc3s2)CC1,-2.75%
6,COc1ccc2c(c1)[nH]c1c(=O)n(CCC3=CCCCC3)cnc12,1.57%
7,Cc1ccc([N+](=O)[O-])cc1S(=O)(=O)Nc1ccc(C(=O)N(C)C)cc1,6.91%
8,CC1CN(C(=O)c2ccc(-c3ccccc3Cl)o2)CC(C)O1 (centres unmarked),10.5%
9,CCOC(=O)CNC(=O)c1sc(NC(=O)c2ccccc2)nc1C,6.33%
10,CCC(CC)C(=O)Nc1ccc(Nc2ccccc2)cc1,11.8%
11,O=C(CSc1nnc(CNC(=O)c2ccccc2F)o1)c1ccc(Cl)cc1,9.22%
12,COC(=O)c1cccc(NC(=S)NCc2ccc(Cl)cc2)c1,8.88%
13,COC(=O)c1ccc(NC(=S)NC2CC3CCC2C3)cc1 (centres unmarked),14.7%
14,CCc1cc(C(=O)N(C)CC(=O)N(CC(C)C)c2c(N)n(CC(C)C)c(=O)[nH]c2=O)sc1C,9.28%
15,COc1ccc(OC)c2[nH]c(=O)c(CCNC(=O)c3cc4ccccc4o3)cc12,-1.8%
16,CSc1ccccc1NS(=O)(=O)c1ccc2c(c1)OCCO2,10.3%
17,CCCNc1nc(C)cc(-c2cc(C(=O)Nc3ccccc3)on2)n1,6.25%
18,COc1ccc(CCNC(=O)CSc2nn(-c3ccccc3)c(=S)s2)cc1,7.31%
19,Cc1ccc(-c2nnc(SCC(=O)N(C)C)nc2-c2ccc(C)cc2)cc1,-45.5%
20,N#Cc1ccccc1S(=O)(=O)N1CCN(C(=O)c2ccc(-n3cncn3)c([N+](=O)[O-])c2)CC1,10.1%
21,Cc1ccc(OCCN(C)C(=O)c2cc(COc3ccc(F)cc3F)on2)cc1,-0.323%
22,Cc1ccc2c(Cl)c(C(=O)NCCc3ccccc3)sc2c1,7.6%
23,CC(C)C(NS(=O)(=O)c1cccc(C(F)(F)F)c1)C(=O)N1CCc2ccccc2C1 (centres unmarked),13.9%

row,Structure (SMILES),"hERG current change (%, negative = inhibition) at 1uM"
1,NS(=O)(=O)c1ccc(N=NN2CCCCC2)cc1,5.02%
2,Cc1ccc(N(CC(=O)NCc2ccc(F)cc2)C(=O)c2snc(C(N)=O)c2N)cc1C,10.8%
3,Cc1cc(=O)oc2cc(OCC3CC(c4ccc(Br)cc4)=NO3)ccc12 (centres unmarked),21.4%
4,COc1cc(O)c(C(=O)/C=C/c2ccccc2)c(OC)c1,15.3%
5,COc1ccc(CCN(C)C/C=C/c2ccccc2)cc1OC,-43.3%
6,Cc1ccc(OCC(=O)Oc2ccc(C)c(C)c2)cc1,12.1%
7,COc1ccc(C2c3cc(OC)c(OC)cc3CCN2C(=O)c2ccccc2Br)cc1OC (centres unmarked),9.35%
8,COc1ccc(C(=O)N/N=C\c2ccc(OC)c(COc3ccccc3Br)c2)c(OC)c1,8.53%
9,Cc1ccc(C(=O)N2CCCCC2)cc1S(=O)(=O)N1CCCCCC1,8.28%
10,C(=C\c1ccccc1)/C=N/Nc1nc(N2CCOCC2)nc(N2CCOCC2)n1,5.52%
11,N#C/C(=C\c1ccco1)c1nc2ccccc2s1,8.16%
12,CC1CCc2c(C(=O)N3CCN(S(=O)(=O)c4cccs4)CC3)csc2C1 (centres unmarked),3.43%
13,Nc1cc(=O)[nH]c(=S)n1-c1ccccc1,8.75%
14,C[C@@H]1CN(C(=O)c2nc3ccc(Cl)cn3c2CNCC[C@@H]2C[C@@H]3C=C[C@H]2C3)C[C@H](C)O1,3.06%
15,Cc1ccc(-c2nnc(SCC(=O)Nc3ccccc3F)o2)cc1,10.7%
16,O=C(O)CCn1c2ccccc2c2nc3ccccc3nc21,18.2%
17,CCC(Sc1nc(C)cc(C)n1)C(=O)NC1=NN=C(c2ccc(C)cc2)CS1 (centres unmarked),5.95%
18,Cc1ccc(S(=O)(=O)NCCCCCC(=O)N(C)C)cc1,7.86%
19,COc1ccc(S(=O)(=O)Nc2ccc3c(c2)n(C)c(=O)n3C)cc1F,21.6%
20,COc1cccc(NC(=O)CSc2ccc3nnc(-c4ccncc4)n3n2)c1,3.46%
